# In the supplement of paper PMC11417369:
# ± gives the standard deviation of the averaged measurements. The list shows a part of the results.
# System: PfAP2-LT AP2 domain (GST-tagged)
# Assay: gcPBM binding intensity (ln(normalized median fluorescence intensity)); higher = stronger DNA binding
# How it was run: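 An Agilent 4 × 180k array of primer-extended double-stranded 36-bp intergenic genomic probes, with negative controls, was incubated for 1 h with GST-tagged P. falciparum DNA-binding domains expressed in E. coli. Alexa488 anti-GST antibody detected bound protein, scanned at 488 nm. Binding intensity is the highest Masliner-normalised natural-log median intensity across replicate spots of either probe orientation.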
row,Sequence,gcPBM binding intensity (ln)
1,ATCAAGCACCAACACACACACACACCCCCACCCACA [CACACA_site370],10.6 ± 0.11
2,TAAATAAATAAAAAAACACACATATATATATATATA [CACACA_site4029],9.6 ± 0.44
3,TTTTATCACATTATTGCACACACATAAAGAAAAAAA [CACACA_site8922],9.04 ± 0.3
4,ATATATATATATAACTGTACTTATATATACATTTTA [XGTACX_site8605],9.11 ± 0.16
5,ATATATATATATATATGTACATATATATATAATTTT [XGTACX_site4146],9.34 ± 0.54
6,TTATATTTATTTATTTGTACATATTTTTTTTTATAT [XGTACX_site1669],8.76 ± 0.57
7,TTTCTTTTTAAATATATACACACCGTGGGTACATAT [CACACA_site9102],8.92 ± 0.52
8,ATATAATAAAATGACACACGCATATATATATATATA [CACACA_site2789],9.955 ± 0.021
9,AGGCTCAAATCTAGGTGTACCATTATCGTTGTATCT [XGTACX_site4730],8.99 ± 0.37
10,ATTTTTTCTTATAATGCATGTAGAAAACCGTACAGC [TGCATGCA_site57],8.57 ± 0.4
11,CCTAAATTATATTATGCACACTTAAAAATATATTTA [CACACA_site5861],8.54 ± 0.4
12,TATGTGTTTATTTGGTGTACATACTAATAAATATAC [XGTACX_site1682],8.74 ± 0.33
13,ATATATATATATATATGTACTTATTTATCGTATTAT [XGTACX_site3520],9.84 ± 0.31
14,ATTAATATTCTATATGCATGTGAACCATGGTATATA [TGCATGCA_site430],8.77 ± 0.42
15,TCATATCTTTTGAGCACACATATATATATATAAAGG [CACACA_site3338],8.9 ± 0.34
16,ATAAAATATTAATTTTAAATTAATCAATATATATAA [GTGCAC_negctrl_site474],8.21 ± 0.52
17,TTCTCATTCAAATTAGTGCATTTTTGTTATTACATT,8.8 ± 0.49
18,AAACAGAAGACATATACACACATACAAAAAAGTGCA [CACACA_site4699],9.38 ± 0.49
19,TGTGTATATATATAATGTACATAAAGATTTATATAT [XGTACX_site5835],8.78 ± 0.49
20,TTTTAAGAATAAAATTGTACACATACATGTGTTCGC [XGTACX_site438],8.99 ± 0.49
21,TTATTTATATATTCATGTACATAACATTTCATTCGA [XGTACX_site4388],8.64 ± 0.49
22,ATATAAATTTTTTAGAGTACTAAAATAAAATAATAT [XGTACX_site2118],8.45 ± 0.47
23,TAAAAAATGAAAAAGCGTACATGTTTTCTTATATTA [XGTACX_site1722],8.53 ± 0.44

row,Sequence,gcPBM binding intensity (ln)
1,TTTTCTAAAATGAATTGTACTTGATTATTTAAAAAA [XGTACX_site6097],8.05 ± 0.41
2,ATACTAAAAAGTATCTGTACTTATTTTAAAAATAAA [XGTACX_site4116],8.19 ± 0.53
3,TATTTACTTATATGCACACATAAATGTGAATTATGG [CACACA_site3777],9 ± 0.34
4,TAAATAATTAAAATATGTACTGAAATGTAATTATTT [XGTACX_site5894],8.6 ± 0.45
5,TGTATCATAAAAATAACACACGTATTTTTTTTTATT [CACACA_site1050],8.68 ± 0.45
6,AATAATATATATATATATATAATAAAATATAAATAG [CACACA_negctrl_site1515],8.95 ± 0.38
7,CCAACATGCCCACGCACACACAAAAAAAGCATGCAT [CACACA_site4217],9.51 ± 0.4
8,TTATTTATTTATAATAGTACAATTTAATGATCTTCT [XGTACX_site4831],8.44 ± 0.58
9,TGTTTTATACTAAATGAACACACACCCATATATATA [CACACA_site7912],9.13 ± 0.13
10,CAATATATTTGATTTACACACTTACAATGTATATAA [CACACA_site2994],8.73 ± 0.37
11,AAAAATAACGTAAATTGTACATGTAAAATTTTCTAT [XGTACX_site7158],8.98 ± 0.3
12,ATATGAAATAATAATAGTACATAAAATAATTTTACT [XGTACX_site6964],8.69 ± 0.41
13,ATAGAAATATATATATGTACATATAGATAAATCTAT [XGTACX_site7833],8.9 ± 0.34
14,ATAAATACAGATAACACACACATATATATATATATA [CACACA_site5431],10.225 ± 0.0071
15,ACATTTTTTTTTTTTTTTCTTTTTCTTTTTCTTTTT [CACACA_negctrl_site1295],8.71 ± 0.66
16,AACTTTGAGACATAGTGTACTTACACAATCTTAATA [XGTACX_site3712],8.65 ± 0.45
17,CATATTTGATACAAGTGTACTTTATTTAAAAATTCT [XGTACX_site8408],8.5 ± 0.41
18,TTTCAAAAAAATAGCTATATTTATATTAATGCACGA [TGCATGCA_negctrl_site63],8.49 ± 0.4
19,TATATAACTGTCTTCAGTACACAATAAATAAAAATA [XGTACX_site8856],8.69 ± 0.4
20,TAATAAAAATAAAATTGTACTAATAACATTTCATTA [XGTACX_site3703],8.27 ± 0.45
21,AAAGGTGTATATAATACACACGTGTGATTAAAATTG [CACACA_site8104],9.3 ± 0.28
22,GAAAAAATAAAATAAAGTACATAACTATAATAAAAA [XGTACX_site4807],8.88 ± 0.7
23,TACTCCTCAATATTATGTACATATAATAGTTATAAA [XGTACX_site8551],8.47 ± 0.46

row,Sequence,gcPBM binding intensity (ln)
1,CTTACACCCATATATACACACATGTATATTTTATAT [CACACA_site4462],9.21 ± 0.4
2,ATATATAAACACTCTTGTACATAATAATGTATATAT [XGTACX_site2451],8.87 ± 0.33
3,TCGTATCTATTGAGGGTGCCTCTATAATTGATACAA [GTGCAC_site9636],8.38 ± 0.35
4,TAATATAATATATGCACACAAATATGTATTTATGTG [CACACA_site5210],9.88 ± 0.18
5,AGTAAATAATAGATCGCATGTAATAACTAGTAGGAA [TGCATGCA_site948],9.2 ± 0.48
6,ATTATAAAGACATATACACACATACGTACATACATA [CACACA_site5893],9.18 ± 0.3
7,ACAATTGAAGAAATACGTACATAAAGAAAAACTAGT [XGTACX_site820],9.15 ± 0.45
8,AAAATCACAAGACACACACACACAAAAAAAAAAAAA [CACACA_site6791],9.94 ± 0.58
9,AGTATAAAATAAATGTGTACACAAGAAAATATGTTA [XGTACX_site8381],9.18 ± 0.57
10,ATATATATATGTATGTGTCCACAAGGAGATATATAT [XGTACX_site783],9.43 ± 0.3
11,AAAATATTTTAATGTTGTACATTAATATATTATATA [XGTACX_site2513],8.46 ± 0.4
12,TGTATTAAATTTTGAACACACAAAATAAAACATATA [CACACA_site1672],8.73 ± 0.43
13,AACAGATAAAAGGGTACACACATATATACCTGTACA [CACACA_site4285],9.19 ± 0.42
14,TGTACATTCGGAGTAAAAAAAAATTTATACAATTAC [CACACA_negctrl_site1451],8.54 ± 0.4
15,TACATAAATATATGTGTGCACAATTTCGTATATTTA [GTGCAC_site9859],9.15 ± 0.4
16,TAAAATATAATTAGCACACATATATAAAATATATAT [CACACA_site4093],8.79 ± 0.37
17,TTTTTTTTTTTTTGGGGTACATTTTAATTAATATTA [XGTACX_site4866],8.82 ± 0.19
18,GTTCAAAATATGAACACACACATATATATATATATA [CACACA_site2057],10 ± 0.014
19,TTTCGTAATATGCGTGTGCACAATGAGTCCATATCT,9.24 ± 0.39
20,ATCTACATATATTATTGTACATTGTTAAAAATTTAT [XGTACX_site7769],8.77 ± 0.41
21,GTAAATATGTTTATTAGTACACATATGAAAATAAAT [XGTACX_site5820],8.89 ± 0.45
22,GTTGTTTCTATAAATTGTACTTAAATATAATTATAT [XGTACX_site585],8.73 ± 0.35
23,ATATATTGTATGTGCTCACACATGTTTCGATATTAT [CACACA_site4336],9.16 ± 0.35

row,Sequence,gcPBM binding intensity (ln)
1,TCTTTTTTTTTACATACTTTTTTCCTTTTTTTTTTA [CACACA_negctrl_site1429],8.58 ± 0.61
2,ACGCACGAAATAAATACATGCATATTGTAAAAATTA [TGCATGCA_site310],8.88 ± 0.42
3,GGGAATATATTCAATTGTACATTCTTATTTTATCCA [XGTACX_site8480],8.82 ± 0.45
4,CTAGACTTTTTACAATGTACATATTTATGTATTATT [XGTACX_site1833],8.99 ± 0.34
5,TCTTGTAGATATATTTGTACATATATTTATGGGTAT [XGTACX_site1139],8.88 ± 0.4
6,TTTTTTCATAAATAATGTACATATATATATATATAT [XGTACX_site3620],9.16 ± 0.13
7,ATATTATTTATAAGTTGTACGGTATAATATAATATA [XGTACX_site5371],8.47 ± 0.36
8,AAAATTTTTTACTTTACACACATTTTGTATATTTTG [CACACA_site1730],9.15 ± 0.38
9,AAAAAATATATATTAACACACACACTAATAAAAAAA [CACACA_site8366],9.56 ± 0.17
10,TATTTAATGCAAAAACGTACATAAATAACATTCACA [XGTACX_site5356],8.72 ± 0.36
11,TATAAACACCCATATAAACACACATACATACATACA [CACACA_site8791],9.51 ± 0.33
12,TATATATATATTAGTGGTACAAGATTTTTTTCTTTT [XGTACX_site4619],8.52 ± 0.49
13,CAACTCTTATTTAATTATATGAATTAATTTATATGA [CACACA_negctrl_site200],8.42 ± 0.37
14,TGCATAAATTTATGCACACATAAAAAAAAAAAAAAA [CACACA_site2923],8.91 ± 0.44
15,CATAAATGTCTCACATGTACATATGCATTTTTAAAA [XGTACX_site3194],8.57 ± 0.33
16,TATATATAATATTGCACACAAAATTAAAAGTAAATA [CACACA_site19],9.06 ± 0.4
17,ATTATTTTGTTTATTACATGCAGGTGTATATTACAG [TGCATGCA_site723],8.9 ± 0.33
18,GAGTATATTTATATTGCACACAATTTTTTTATTTTT [CACACA_site2644],9.1 ± 0.42
19,TTAAATACTAAAAAGTGTACACATACATAAAAAATT [XGTACX_site6261],8.96 ± 0.45
20,ATTATGTTAATAATATGTACATATATCTACATATAT [XGTACX_site7978],9.04 ± 0.43
